Measured values taken from PubChem BioAssay AID720709 (National Center for Advancing Translational Sciences (NCATS), 2013).
In all, about 360,000 compounds went through this assay and about 520 (0.14%) were called active. Inconclusive means that the source gave no clear call. Such entries were picked first, then a sample of the others. Calls follow the shape of the dose curve; as a rule, active = well fitted inhibition curve with a large enough effect; inconclusive = small, poorly fitted or top-dose-only effect; inactive = no such curve, though single readings can be large or run the other way. Potencies beside an inconclusive call are fits to weak or partial responses and may not hold up.

molecular target: Rap guanine nucleotide exchange factor 3 (Homo sapiens) (UniProt O95398); assay: qHTS for Antagonist of cAMP-regulated guanine nucleotide exchange factor 3 (EPAC1): primary screen; conditions: EPAC1 GEF assay, Rap1b-BODIPY-GDP exchange fluorescence; activity change, negative = inhibition: at 115 µM (top of the series); also: nearly all actives have a fitted effect of over 50% in size;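 as to activity change, negative = inhibition: plate controls were vehicle for no effect and positive control for full effect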
Potency is read from the fitted curve at half-maximal effect; tags tell the direction and shape of the fitted curve.

UniProt O95398, sequence (O95398 whole entry, looked up): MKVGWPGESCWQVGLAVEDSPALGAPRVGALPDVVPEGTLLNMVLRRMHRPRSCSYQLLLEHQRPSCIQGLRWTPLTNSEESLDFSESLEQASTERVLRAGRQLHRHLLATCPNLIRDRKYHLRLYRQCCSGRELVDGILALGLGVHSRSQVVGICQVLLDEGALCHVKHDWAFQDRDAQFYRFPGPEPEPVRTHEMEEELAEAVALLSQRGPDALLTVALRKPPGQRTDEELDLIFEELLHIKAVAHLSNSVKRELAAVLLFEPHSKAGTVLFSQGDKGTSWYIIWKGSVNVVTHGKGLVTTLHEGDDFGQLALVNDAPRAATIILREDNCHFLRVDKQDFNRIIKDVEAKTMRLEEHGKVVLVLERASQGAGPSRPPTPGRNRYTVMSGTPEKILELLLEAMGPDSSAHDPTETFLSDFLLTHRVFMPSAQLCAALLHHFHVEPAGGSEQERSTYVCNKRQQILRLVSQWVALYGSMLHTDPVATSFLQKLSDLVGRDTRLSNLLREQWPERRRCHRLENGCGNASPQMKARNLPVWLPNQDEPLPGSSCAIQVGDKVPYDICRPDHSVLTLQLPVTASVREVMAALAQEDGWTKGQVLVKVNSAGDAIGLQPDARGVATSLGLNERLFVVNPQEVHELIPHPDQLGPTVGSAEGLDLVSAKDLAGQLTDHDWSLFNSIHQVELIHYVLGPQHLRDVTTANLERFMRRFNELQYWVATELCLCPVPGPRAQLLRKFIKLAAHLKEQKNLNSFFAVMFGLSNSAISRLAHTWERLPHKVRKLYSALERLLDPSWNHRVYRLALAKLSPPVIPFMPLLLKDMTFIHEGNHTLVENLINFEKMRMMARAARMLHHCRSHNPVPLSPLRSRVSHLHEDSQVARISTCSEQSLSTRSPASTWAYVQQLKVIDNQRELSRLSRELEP

Potency, inconclusive:
CC1(C(=O)NS(=O)(=O)c2cccs2)CCN1C(=O)C1(c2ccc(Cl)cc2)CC1 (stereo not drawn) 70.8 µM [inhibitor, partial curve]
COc1cc2nc(C3CCC3)n(NC(=O)c3ccco3)c(=O)c2cc1OC 31.6 µM [inhibitor, partial curve]
COc1ccccc1[C@@]1(C)ON(c2ccccc2C(F)(F)F)C1=O 100 µM [inhibitor, single point]
COc1ccccc1NS(=O)(=O)c1cc(C(=O)N2CCCCCCC2)ccc1C 56.2 µM [inhibitor, partial curve]
O=C(NCc1cccc(C(F)(F)F)c1)c1cccc(S(=O)(=O)NCc2ccccc2)c1 28.2 µM [inhibitor, partial curve]
Cc1cccc(NC(=O)CSc2nc(C3CC3)nc3ccccc23)c1 56.2 µM [inhibitor, partial curve]
COc1cc(SC)ccc1C(=O)Nc1nc(C)cc(C)n1 100 µM [inhibitor, single point]
CCOC(=O)c1c(C)n(-c2ccc(C)cc2)c2ccc(OCC(O)CNCCCO)cc12 (stereo not drawn) 44.7 µM [inhibitor, partial curve, poor fit]
CN(C)C(=O)C1C2NC(=S)N(c3ccc(Cl)cc3)C1(C)Oc1ccc(Cl)cc12 (stereo not drawn) 100 µM [inhibitor, single point]
N#Cc1ccsc1NC(=O)COC(=O)C1=NNC(=O)CC1 89.1 µM [inhibitor, partial curve]
O=C(c1ccccc1)c1ccc(OCC(O)CNC2CCCc3ccccc32)cc1 (stereo not drawn) 15.8 µM [inhibitor, partial curve]
COc1ccc(/C=C/C(=O)NC(=S)Nc2ccc(S(=O)(=O)Nc3cc(C)on3)cc2)cc1 79.4 µM [inhibitor, partial curve]
O=C(O)c1cccc(CN2C(=O)S/C(=C/c3cccc([N+](=O)[O-])c3)C2=O)c1 112 µM [inhibitor, partial curve, poor fit]
CCOC(=O)[C@]12CCCC=C1N(Cc1ccc(Cl)cc1Cl)C(=O)[C@H](CC(=O)NCCC(C)C)C2 79.4 µM [inhibitor, single point]
COc1ccc(OC(C)C(=O)Nc2ccc(F)cc2F)cc1 (stereo not drawn) 50.1 µM [inhibitor, partial curve]
CC(C)CCNC(=O)c1cnn2c(C(F)(F)F)cc(-c3ccco3)nc12 79.4 µM [inhibitor, partial curve]
CCc1sc(C(=O)NCCc2ccc(S(N)(=O)=O)cc2)cc1Br 89.1 µM [inhibitor, partial curve, poor fit]
CC(Oc1ccc(Cl)cc1Cl)C(=O)NC1=NN(c2ccccc2)C(=O)C1 (stereo not drawn) 89.1 µM [inhibitor, single point]
O=C(COC(=O)C1(c2ccc(Cl)cc2)CCCC1)NC1CCS(=O)(=O)C1 (stereo not drawn) 50.1 µM [inhibitor, partial curve]
Cc1ccccc1CN1C(=O)C(C)Sc2ccc(-c3ccco3)cc21 (stereo not drawn) 79.4 µM [inhibitor, partial curve]
CC(=NNC(=S)N1CC2CCC(CC2)C1)c1ccncn1 70.8 µM [inhibitor, partial curve, poor fit]
CC(/C=C/c1ccco1)=N\NC(=O)c1cc(Cl)ccc1O 44.7 µM [inhibitor, partial curve]
CCC(=O)N1CCN(c2ccccc2NC(=S)NC(=O)c2cccc([N+](=O)[O-])c2)CC1 100 µM [inhibitor, single point]
Cc1cccc2c1NC(=O)C2=O 44.7 µM [inhibitor, partial curve]
CC(=O)Nc1ccc(NC(=O)Cn2c(=O)n(-c3ccc(C)cc3)c(=O)c3oc4ccccc4c32)cc1 89.1 µM [inhibitor, single point]
CC(OC(=O)C1=COCCO1)C(=O)c1ccc(Br)cc1 (stereo not drawn) 50.1 µM [inhibitor, partial curve]
CN(c1ccc(OCC(=O)OCC(=O)Nc2ccccc2)cc1)S(=O)(=O)c1cccs1 3.55 µM [inhibitor, full curve, poor fit]
CCOC(=O)/C(C#N)=C\c1c(C)cc(C)c(COC(C)=O)c1C 35.5 µM [inhibitor, partial curve]
COC(=O)c1nn(-c2ccc(Oc3ccccc3)cc2)c(=O)cc1O 89.1 µM [inhibitor, partial curve, poor fit]
Cc1ccc(C(=O)CCS(=O)(=O)c2ccc(F)cc2)cc1 39.8 µM [inhibitor, single point]
Cc1ccc(NC(=S)N2CCC(NC(=O)c3ccc(C)cc3)CC2)cc1 100 µM [inhibitor, single point]
Cc1cc(C(=O)NNC(=O)c2cccc(S(=O)(=O)N3CCOCC3)c2)c2ccccc2n1 31.6 µM [inhibitor, partial curve]
NC1=NC(=O)/C(=C\c2cccnc2)S1 100 µM [inhibitor, single point]
CCn1cc(CNCc2cn(-c3ccccc3C)nc2-c2ccc(OC)c(F)c2)cn1 44.7 µM [inhibitor, full curve, poor fit]
C=CC[C@H](CC(=O)N(CCO)Cc1ccccc1)C(=O)N[C@H](COC(=O)[C@@H](CC=C)Cc1ccc(F)cc1)Cc1c[nH]c2ccccc12 2.82 µM [inhibitor, full curve, poor fit]
COc1cccc(CNc2ccc(F)c([N+](=O)[O-])c2)c1O 12.6 µM [inhibitor, full curve, poor fit]
Clc1ccc(-c2nnc3sc(-c4ccc(Br)o4)nn23)cc1 50.1 µM [inhibitor, partial curve]
O=C(COC(=O)c1cccs1)NCc1cccs1 39.8 µM [inhibitor, full curve, poor fit]
O=C(CSc1nc(-c2ccccc2)nc2ccc(F)cc12)Nc1ccc(C(=O)O)cc1 50.1 µM [inhibitor, partial curve]
O=C(c1cc([N+](=O)[O-])ccc1Cl)N1CCN(c2ccccn2)CC1 100 µM [inhibitor, partial curve]
O=C(CN1C(=O)N/C(=C\c2ccccc2OCc2ccc(C(=O)O)cc2)C1=O)Nc1ccc(F)cc1 70.8 µM [inhibitor, partial curve, poor fit]
CCC(C)NC(=O)Cn1c(=O)n(CCCCCC(=O)Nc2ccccc2)c(=O)c2sccc21 (stereo not drawn) 100 µM [inhibitor, single point]
Cc1ccc(-c2[nH]ncc2/C=N/n2c(C)nc3ccccc3c2=O)cc1 89.1 µM [inhibitor, single point]

Potency, active:
CCOC(=O)Nc1cc2c(c(N)n1)N=C(c1ccccc1)CN2 89.1 µM
O=C1C=C(N2CCOCC2)c2ccccc2C1=O 10 µM

Potency, inactive:
COc1cccc2c1C(=O)c1c(O)c3c(c(O)c1C2=O)CC(O)(C(C)=O)CC3OC1CC(O)C(O)C(C)O1 (stereo not drawn)
Cc1c(C)c2c(C)nn(-c3ccccc3)c2[nH]c1=O
COc1ccc2c(CCNC(=O)Nc3ccccc3)c[nH]c2c1
CCN(CC(=O)Nc1c(F)cccc1F)C(=O)CN(C)S(=O)(=O)c1ccc(F)cc1
CCCc1ccc(S(=O)(=O)N2CCN(C(C)C(=O)NCc3ccc(OC)cc3)CC2)cc1 (stereo not drawn)
O=C(O)c1cccc(Nc2ccc3nonc3c2[N+](=O)[O-])c1
COC(=O)N(C)c1nc2ccccc2s1
CC1CCCCN1C(=O)c1ccc(NC(=O)c2ccccc2Cl)cc1 (stereo not drawn)
COc1cc(/C=N/n2c(-c3cc(C)[nH]n3)n[nH]c2=S)cc(OC)c1O
O=C(NC(c1ccc(F)cc1)c1ccc2ccccc2n1)C1CCN(Cc2cccc(C(F)(F)F)c2)CC1 (stereo not drawn)
CN(C)S(=O)(=O)c1ccc(N2CCCC2)c(C(=O)N2CCC(C(N)=O)CC2)c1
CCCCNC(=S)N1CCN(c2nc3ccccc3s2)CC1
Cc1nc2ccc(C(=O)N(C)Cc3ccco3)cn2c1N(C)CC1CCCCC1
COc1cc(/C=C2\SC(c3ccc(C)cc3)=NC2=O)cc(OC)c1O
Cc1ccc(S(=O)(=O)Nc2cc(=O)[nH]c(SCC(=O)Nc3ccccc3Cl)n2)cc1
CCn1c2ccccc2c2cc(NC(=O)c3cc(OC)cc(OC)c3)ccc21
OC(c1cccc(Cl)c1)c1ncc(-c2cccc(C(F)(F)F)c2)[nH]1 (stereo not drawn)
NC(=O)c1cc2ccccc2oc1=NCc1ccccc1
Cc1ccc(SCC(=O)Nc2ccccc2C(=O)O)cc1
CC1Cc2ccccc2N1C(=O)COc1ccc2c(c1)OCO2 (stereo not drawn)
O=C(C1=C(O)C(=O)N(CCN2CCOCC2)C1c1cccc(O)c1)c1cc2ccccc2o1 (stereo not drawn)
Nc1ccccc1N1C(=O)c2cccc3cccc(c23)C1=O

Activity change, negative = inhibition, inconclusive:
CCCc1ccc(C#N)c(SC2CC(=O)N(c3ccc(OC)cc3)C2=O)n1 (stereo not drawn) -3.91% [inhibitor]
